Results published in PubChem BioAssay (Tox21).
“And” between values parts separate entries of the source, which are not always exact repeats. Equal entries are not always repeated. The inconclusive results got no clear call from the source; some entries with a clear call stand among them for comparison. No potency is given beside an inconclusive call; the fits are too rough. The source made the active and inactive calls. The call rests on the fitted dose curve; in most records, active means well fitted activation curve with a large enough effect in the signal ratio in the repeat runs (not every such curve was filed as active); inconclusive means weak or mixed curves, or effect the other way; inactive means no such curve, though single readings can be large or run the other way; the % refers to the signal ratio.

Molecular target: Peroxisome proliferator-activated receptor gamma (Homo sapiens) (UniProt P37231)
Test: qHTS assay to identify small molecule agonists of the peroxisome proliferator-activated receptor gamma (PPARg) signaling pathway (AID 743094)
Settings: HEK293H PPARg-UAS-bla, beta-lactamase FRET ratio, 17 h; activation: at 57 µM (top of the series) unless noted
Procedure, shortened: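 Stably transfected HEK293H cells (GeneBLAzer PPARg UAS-bla) were incubated with test substances for 17 h at 37C after a 5 h pre-incubation; beta-lactamase activity was then detected by FRET substrate fluorescence.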
On the % scale 0 is the no-effect control and ±100 the full control effect; potency means the concentration at half of the fitted maximal effect; tags describe the fitted curve by direction and shape or compound fluorescence and quenching.

Sequence of UniProt P37231 (P37231 whole entry, looked up): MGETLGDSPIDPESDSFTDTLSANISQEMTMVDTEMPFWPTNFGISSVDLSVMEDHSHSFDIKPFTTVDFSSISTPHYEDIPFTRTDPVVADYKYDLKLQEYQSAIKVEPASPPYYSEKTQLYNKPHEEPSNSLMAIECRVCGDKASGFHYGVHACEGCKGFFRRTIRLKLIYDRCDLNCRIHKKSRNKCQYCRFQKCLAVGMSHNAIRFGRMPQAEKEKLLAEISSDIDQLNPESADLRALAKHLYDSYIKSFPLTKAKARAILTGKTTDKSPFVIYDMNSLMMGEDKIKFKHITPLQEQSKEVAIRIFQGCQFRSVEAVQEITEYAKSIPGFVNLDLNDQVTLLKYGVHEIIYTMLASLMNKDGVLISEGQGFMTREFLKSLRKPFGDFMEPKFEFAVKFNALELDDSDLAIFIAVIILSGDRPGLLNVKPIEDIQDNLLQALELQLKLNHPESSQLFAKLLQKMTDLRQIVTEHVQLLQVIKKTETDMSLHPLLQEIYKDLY

SMILES	Potency	activation
CCCOc1ccc(S(=O)(=O)N2CCN(CC)CC2)cc1-c1nc2c(CC)n(Cc3ccccn3)nc2c(=O)[nH]1	inconclusive [rising, partial curve]	–
COc1cc(OC)c(C(=O)CCCN2CCCC2)c(OC)c1	inactive	–
CCCCNC(=O)NS(=O)(=O)c1ccc(N)cc1	inactive	–
C1N2CN3CN1CN(C2)C3	inconclusive [rising, partial curve, poor fit]	–
O=C[O][Al]([O]C=O)[O]C=O	inconclusive [rising, full curve, poor fit]	–
COc1ccc(N)c(OC)c1	–	inconclusive: 4.19%
CC(=O)Nc1ccc(N)cc1	–	inactive: 2.43% [at 78.9 µM]
CCCCCCCCCCCCCCCCC(=O)O	–	inactive: 2.92%
CC(CCO)CC(C)(C)C (stereo not drawn)	inactive	–
CC(C)=CCC/C(C)=C/C(=O)O	–	inconclusive: 6.33%
CCC(C)OC(=O)N1CCCCC1CCO (stereo not drawn)	–	inactive: 0.173%
CCC1(c2ccccc2)C(=O)NCNC1=O	inactive	–
Cc1cc(CC(=O)O)c(C)n1-c1ccc(Cl)cc1	–	inconclusive: -13.3%
CCOc1cccc(N)c1	inconclusive [rising, partial curve, poor fit]	–
C=CCc1cc(OC)c(O)c(C(=O)NCCO)c1	–	inactive: 2.19%
O=C1OC(CN2CCOCC2)CN1/N=C/c1ccc([N+](=O)[O-])o1 (stereo not drawn)	inconclusive [rising, partial curve, poor fit]	–
C=C(C)C(N)=O	inactive	–
CCCCOC(=O)c1ccc(N)cc1	–	inconclusive: -11.4% and inconclusive: -9.59%
